According to a collection of fitness landscapes (doi:10.1038/s41467-024-54723-y):
Over roughly 18,000 sequences, “TetR repression strength (sort-seq, GFP reporter)” has its median near 0.23; the highest 2% begin near 0.68. Some of the results follow.

molecular target: TetR (class B, Tn10) (UniProt P04483); assay: TetR repression strength (sort-seq, GFP reporter) (relative to tetO2 = 1); higher = stronger repression; settings: E. coli
How it was run: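 In LB with 50 µg/mL chloramphenicol, E. coli SIG10-MAX holding a low-copy library with eight randomized operator positions between a constitutive promoter and sfGFP, plus constitutive TetR, grew for 5 h at 37 °C. FACS then sorted 10^6 cells into 13 fluorescence bins for Illumina sequencing of each bin. Repression strength equals the top bin index plus one less the read-weighted mean bin, normalized to the unaltered operator. Values from three independent transformations were averaged when reads were ≥30 in every replicate and the CV was ≤0.5.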

Sequence of UniProt P04483 (P04483 whole entry): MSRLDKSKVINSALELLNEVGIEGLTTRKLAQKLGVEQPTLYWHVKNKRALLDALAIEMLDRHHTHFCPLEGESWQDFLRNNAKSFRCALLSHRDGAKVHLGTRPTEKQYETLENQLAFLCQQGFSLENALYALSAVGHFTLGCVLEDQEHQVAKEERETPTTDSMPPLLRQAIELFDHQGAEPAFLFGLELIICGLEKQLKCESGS

Sequence	TetR repression strength
TCCCAGGAAGTCGAAGAGA	0.24
TCCCTCAAAGTGAGCGAGA	0.00441
TCCCACATAGTGGGCGAGA	0.147
TCCCGAACAGTGTGCGAGA	0.108
TCCCGTATAGTATAAGAGA	0.0424
TCCCGGGGAGTGACTGAGA	0.143
TCCCTGTGAGTACCGGAGA	0.138
TCCCAGAGAGTTGGGGAGA	0.14
TCCCATCAAGTATAAGAGA	0.104
TCCCCCGTAGTATGCGAGA	0.284
TCCCGGAAAGTTGAAGAGA	0.33
TCCCAGAGAGTGGATGAGA	0.235
TCCCTTGCAGTAGTAGAGA	0.244
TCCCTTCTAGTAGCAGAGA	0.419
TCCCGTCTAGTATACGAGA	0.243
TCCCGAACAGTATTCGAGA	0.246
TCCCTCCCAGTAATGGAGA	0.325
TCCCTATAAGTTAGAGAGA	0.244
TCCCGGAGAGTGAGTGAGA	0.225
TCCCCGCTAGTGGTCGAGA	0.41
TCCCGTACAGTCGAGGAGA	0.0576
TCCCGTAAAGTCGATGAGA	0.233
TCCCTTGGAGTAAATGAGA	0.502
TCCCTCGTAGTAAACGAGA	0.389
TCCCGTAGAGTCTGAGAGA	0.219
TCCCGAGAAGTTGGGGAGA	0.131

Sequence	TetR repression strength
TCCCCGCGAGTGAACGAGA	0.211
TCCCACGAAGTGTGTGAGA	0.197
TCCCTTCCAGTGATGGAGA	0.307
TCCCGGTGAGTACATGAGA	0.00259
TCCCTACGAGTGGCGGAGA	0.0202
TCCCGTCGAGTGCTGGAGA	0.258
TCCCGGTTAGTTTATGAGA	0.347
TCCCGTCGAGTGAGAGAGA	0.396
TCCCGTGAAGTGCCCGAGA	0.132
TCCCGTGGAGTATGGGAGA	0.207
TCCCGGCCAGTGTGTGAGA	0.172
TCCCGCTCAGTTGTCGAGA	0.262
TCCCGGGGAGTTCGTGAGA	0.0864
TCCCTATCAGTGCTTGAGA	0.701
TCCCGGTTAGTCCTGGAGA	0.149
TCCCAAATAGTGATTGAGA	0.328
TCCCTGTCAGTTAAGGAGA	0.329
TCCCACTAAGTGAAGGAGA	0.308
TCCCTTAGAGTGATAGAGA	0.504
TCCCCTAGAGTGCGCGAGA	0.901
TCCCTCACAGTTACGGAGA	0.113
TCCCATGAAGTTAACGAGA	0.104
TCCCAACGAGTCAAGGAGA	0.352
TCCCCGAGAGTTTCCGAGA	0.314
TCCCAGGGAGTTGCTGAGA	0.125
TCCCCCTGAGTAGGTGAGA	0.311

Sequence	TetR repression strength
TCCCTATCAGTGACAGAGA	0.863
TCCCTGAGAGTTGGCGAGA	0.198
TCCCCGCGAGTTGGTGAGA	0.0294
TCCCGGCTAGTTTAGGAGA	0.285
TCCCTTCTAGTTTTTGAGA	0.415
TCCCATCCAGTAATGGAGA	0.278
TCCCCGTGAGTGGGTGAGA	0.171
TCCCGGTTAGTGTAGGAGA	0.172
TCCCATTGAGTGAAGGAGA	0.59
TCCCCCACAGTGACAGAGA	0.239
TCCCTTCCAGTGCCGGAGA	0.0663
TCCCGGCGAGTAATCGAGA	0
TCCCGAGTAGTGGAAGAGA	0.339
TCCCGGTTAGTCTTTGAGA	0.12
TCCCTTCCAGTTTGTGAGA	0.388
TCCCCCAAAGTGCCGGAGA	0.143
TCCCGGGCAGTAGTTGAGA	0.238
TCCCGGGTAGTGACCGAGA	0.167
TCCCCGAGAGTTCATGAGA	0.176
TCCCCCCAAGTGTATGAGA	0.317
TCCCGTCGAGTTGAGGAGA	0.17
TCCCACATAGTCCAGGAGA	0.224
TCCCTAGAAGTACATGAGA	0.235
TCCCTTATAGTAGAGGAGA	0.0704
TCCCCCTTAGTGGATGAGA	0.157
TCCCATGGAGTATGGGAGA	0.093

Sequence	TetR repression strength
TCCCCCGAAGTGCACGAGA	0.256
TCCCAGCTAGTGTTAGAGA	0.22
TCCCAGGAAGTGGCGGAGA	0.186
TCCCCGTTAGTGGCGGAGA	0.108
TCCCACTCAGTGCTTGAGA	0.298
TCCCAGTGAGTTTGCGAGA	0.212
TCCCTTTGAGTACAGGAGA	0.318
TCCCGGCTAGTGTTGGAGA	0.166
TCCCTGGTAGTAGCGGAGA	0.221
TCCCACTTAGTTAAGGAGA	0.182
TCCCCGGTAGTGCAAGAGA	0.286
TCCCTTTGAGTGCACGAGA	0.522
TCCCTTGAAGTGACGGAGA	0.317
TCCCGAAGAGTGCAGGAGA	0.58
TCCCTGGCAGTCCGTGAGA	0.177
TCCCGGGAAGTAGGAGAGA	0.24
TCCCGCCCAGTAGCGGAGA	0.173
TCCCGAGTAGTCGTAGAGA	0.0921
TCCCGTACAGTCTGGGAGA	0.133
TCCCCGGCAGTGCTTGAGA	0.0239
TCCCGCAGAGTCGACGAGA	0.518
TCCCGGACAGTGCGGGAGA	0.162
TCCCGTAGAGTGGGTGAGA	0.1
TCCCGCTGAGTGTTGGAGA	0.0653
TCCCTAAAAGTGGTAGAGA	0.0296
TCCCAAGAAGTCGGTGAGA	0.0715

Sequence	TetR repression strength
TCCCGCCTAGTCAGCGAGA	0.0159
TCCCATGCAGTGTGAGAGA	0.188
TCCCTCAAAGTCTATGAGA	0.367
TCCCGGCGAGTCGAGGAGA	0.214
TCCCTGCTAGTCAGGGAGA	0.331
TCCCGGTGAGTCCGTGAGA	0.0804
TCCCAAGCAGTGGTCGAGA	0.494
TCCCAGCGAGTGCTGGAGA	0.28
TCCCTTCGAGTTCCTGAGA	0.409
TCCCGTAGAGTAATTGAGA	0.217
TCCCGCGGAGTCGAAGAGA	0.415
TCCCTCAGAGTGATGGAGA	0.152
TCCCGCTGAGTGAGAGAGA	0.406
TCCCGAAGAGTACGGGAGA	0.357
TCCCATTGAGTGAATGAGA	0.301
TCCCTGCGAGTAAGCGAGA	0.205
TCCCGTATAGTCACCGAGA	0.095
TCCCATAAAGTAGAAGAGA	0.234
TCCCAGGTAGTACGGGAGA	0.119
TCCCGTGAAGTGTAGGAGA	0.235
TCCCACTGAGTCAGAGAGA	0.279
TCCCAGTGAGTCTCGGAGA	0.375
TCCCGCCAAGTATCGGAGA	0.547
TCCCTCGAAGTGTCGGAGA	0.305
TCCCCCCGAGTTCCTGAGA	0.466
TCCCTTTTAGTGCATGAGA	0.711

Sequence	TetR repression strength
TCCCAGGAAGTAAACGAGA	0.301
TCCCACTGAGTTTACGAGA	0.282
TCCCGCCAAGTCCGCGAGA	0.179
TCCCACAGAGTGCGTGAGA	0.543
TCCCCTTAAGTGGTAGAGA	0.201
TCCCGGACAGTGAAGGAGA	0.295
TCCCGCACAGTGTGCGAGA	0.199
TCCCGGATAGTCCAGGAGA	0.131
TCCCCGGGAGTGGAAGAGA	0.185
TCCCTCGGAGTAGTCGAGA	0.0803
TCCCGGTGAGTTGCCGAGA	0.386
TCCCACACAGTATATGAGA	0.207
TCCCGAAGAGTGTGGGAGA	0.339
TCCCGTCAAGTGGATGAGA	0.109
TCCCCTGAAGTTTCGGAGA	0.222
TCCCGAAGAGTGACGGAGA	0.364
TCCCAGGTAGTGACTGAGA	0.294
TCCCCGAGAGTGTGTGAGA	0.248
TCCCGGAGAGTACCGGAGA	0.0749
TCCCATCGAGTTCCCGAGA	0.265
TCCCTAGGAGTGGACGAGA	0.458
TCCCGGGCAGTGGCCGAGA	0.354
TCCCAGAAAGTAGAAGAGA	0.0159
TCCCAATGAGTGTGTGAGA	0.24
TCCCTCAAAGTTGTGGAGA	0.389
TCCCAGCTAGTTTCCGAGA	0.336

Sequence	TetR repression strength
TCCCCCCGAGTAAGAGAGA	0.5
TCCCGGCAAGTTGGGGAGA	0.224
TCCCACGTAGTGCTAGAGA	0.241
TCCCAAGCAGTGCGTGAGA	0.0766
TCCCCTACAGTGGGCGAGA	0.262
TCCCTTCAAGTCTCCGAGA	0.338
TCCCGCTGAGTTAACGAGA	0.241
TCCCCTGTAGTTATAGAGA	0.175
TCCCTTCAAGTAATAGAGA	0.436
TCCCCTCTAGTAGTTGAGA	0.149
TCCCCAATAGTGTGAGAGA	0.187
TCCCCTTTAGTTATAGAGA	0.333
TCCCTTCGAGTGTAAGAGA	0.206
TCCCGAATAGTCCGTGAGA	0.355
TCCCCAGGAGTGCACGAGA	0.236
TCCCTTTAAGTAACCGAGA	0.449
TCCCCTTTAGTGCGCGAGA	0.333
TCCCGGGCAGTCTCGGAGA	0.257
TCCCACGCAGTGAGCGAGA	0.101
TCCCTGTGAGTGTAAGAGA	0.308
TCCCAAGGAGTCGGAGAGA	0.16
TCCCAAGGAGTGATAGAGA	0.977
TCCCTGTCAGTTGGCGAGA	0.874
TCCCGGTAAGTGAGTGAGA	0.277
TCCCGTGGAGTTCAGGAGA	0.13
TCCCCAGTAGTGACGGAGA	0.28

Sequence	TetR repression strength
TCCCGAAAAGTAGGGGAGA	0.143
TCCCATTTAGTAGTGGAGA	0.135
TCCCTCTAAGTGAACGAGA	0.296
TCCCGCGGAGTTGCTGAGA	0.292
TCCCGCTGAGTCTGTGAGA	0.235
TCCCTTATAGTAGGCGAGA	0.0601
TCCCCTTGAGTGGTCGAGA	0.162
TCCCCTAGAGTCGTTGAGA	0.311
TCCCCCGAAGTCCGTGAGA	0.216
TCCCAGCGAGTCTGCGAGA	0.166
TCCCGAACAGTTGATGAGA	0.311
TCCCACTTAGTGGGGGAGA	0.105
TCCCTCATAGTGGGGGAGA	0.194
TCCCGGGTAGTCGTGGAGA	0.19
TCCCAGGCAGTGTGCGAGA	0.291
TCCCATCGAGTCAGAGAGA	0.36
TCCCTGGCAGTCGGGGAGA	0.473
TCCCTATAAGTGCTTGAGA	0.379
TCCCGGTCAGTTACGGAGA	0.212
TCCCTGCAAGTGATCGAGA	0.298
TCCCCTTTAGTAGGCGAGA	0.118
TCCCTGTTAGTAGTTGAGA	0.362
